Assay results reported in PubChem BioAssay AID686979 (National Center for Advancing Translational Sciences (NCATS), 2013).
Values joined by “and” are separate entries in the source; they are usually repeats but may differ in a detail not shown here. Equal entries are not always repeated. Out of some 420,000 compounds screened, about 50,000 (12%) were called active. This list was built around the results that the source calls inconclusive (neither active nor inactive); the mix of calls is not that of the screen. Calls come from the whole dose curve; as a rule, active = well fitted inhibition curve with a large enough effect; inconclusive = small, poorly fitted or top-dose-only effect; inactive = flat fitted curve, though single readings scatter. No potency is given beside an inconclusive call; the fits are too rough. More than one record can exist for a structure, and the calls need not agree.

Assay: qHTS for Inhibitors of human tyrosyl-DNA phosphodiesterase 1 (TDP1): qHTS in cells in presence of CPT; note: nearly all actives have a fitted effect of over 55% in size
Details: chicken DT40 Tdp1-/-;hTDP1 cells + 20 nM CPT, ATP luminescence, 48 h; activity change, negative = growth inhibition: at 46.2 µM (top of the series) unless noted
Method in brief: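 Chicken DT40 Tdp1-/- cells complemented with human TDP1, 400 cells/well, exposed to compounds plus 20 nM camptothecin for at least 48 h at 37 C; viability read as ATP content by CellTiter-Glo luminescence.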
% is set by controls: 0 for no effect and ±100 for the full control effect; potency is the fitted concentration of half-maximal effect; tags give direction and shape of the fitted curve.

Compound | Potency | activity change, negative = growth inhibition
Cc1ccc(Cn2nnnc2CN2CCC(n3nnc4cc(C)ccc43)CC2)cc1 | inconclusive [inhibitor, single point] | 
COc1ccc(NC(C)=O)cc1NC(=O)c1cccn(Cc2ccccc2)c1=O | inactive | 
CC1(C)C(c2ccccc2)=NC(c2cccnc2)N1O (centres undefined) | inconclusive [inhibitor, partial curve] | 
CN1C(C(=O)NCc2cccc(C(F)(F)F)c2)CC2Cn3c(nc4cc5ccccc5cc43)C21 (centres undefined) | inconclusive [inhibitor, single point] | 
CCC(=O)O[C@@H]1CC(=O)O[C@H](C)C/C=C/C=C/[C@H](O)[C@H](C)C[C@H](CC=O)[C@H](O[C@@H]2O[C@H](C)[C@@H](O[C@H]3C[C@@](C)(O)[C@@H](OC(=O)CC)[C@H](C)O3)[C@H](N(C)C)[C@H]2O)[C@H]1OC | inconclusive [inhibitor, single point] | 
Cc1ccc(S(=O)(=O)N2Cc3ccccc3-n3nncc3C2)cc1 | inconclusive [inhibitor, partial curve] | 
CCCCCCCCCCCCCC(=O)OC1C(C)[C@@]2(O)C(C=C(CO)C[C@]3(O)C(=O)C(C)=C[C@H]23)[C@@H]2C(C)(C)[C@]12OC(C)=O (some centres undefined) | inconclusive [inhibitor, full curve, poor fit] | 
Cn1cc(C(=O)N2CCCCC2)c2ccccc21 | inactive | 
O=C(CSc1nc2ccccc2c(=O)n1-c1ccc(F)c(Cl)c1)Nc1ccc2c(c1)CCC2 | inconclusive [inhibitor, partial curve] | 
O=C1C(I)=CC(=C(c2cc(I)c(O)c(I)c2)c2ccccc2C(=O)O)C=C1I | inconclusive [inhibitor, single point] | 
C[C@H]1C[C@@H](C)C(=O)[C@@H]([C@H](O)CC2CC(=O)NC(=O)C2)C1 | active: 0.184 µM | 
NC(N)=NC(=O)c1nc(Cl)c(N)nc1N | inactive and active: 1.46 µM | 
O=c1c2ccccc2nc(/C=C/c2ccc(F)cc2)n1-c1ccccc1O | active: 23.1 µM | 
Cc1nc2ccc(Cl)cc2c(-c2ccccc2)c1C(=O)O | inconclusive [inhibitor, single point] | 
S=C(Nc1ccccc1)Nc1cccc(Br)c1 | inconclusive [inhibitor, single point] | 
COCCn1c(-c2ccccc2)cc(C(=O)O)c1C | inconclusive [inhibitor, single point] | 
S=C(S)N1CCCC1 | active: 0.0596 µM | 
C[C@@H]1CCCCO[C@@H](CN(C)S(=O)(=O)c2ccc(F)cc2)[C@@H](C)CN([C@H](C)CO)C(=O)c2cc(N(C)C)ccc2O1 | inconclusive [inhibitor, single point] | 
COC(=O)C1=C(c2ccc(-c3ccccc3)c(F)c2)C[C@@H]2CC[C@H]1N2C(=O)NCc1cc(C)oc1C(F)(F)F | inconclusive [inhibitor, single point] | 
CC(C)CN1CCC2(CC1)CCN(C(=O)Oc1ccccc1)CC2 | inactive | 
N=C1c2ccccc2CN1CC(=O)c1ccccc1 | inconclusive [inhibitor, partial curve, poor fit] | 
O=P1(N(CCCl)CCCl)NC(OO)CCO1 (centres undefined) | inconclusive [inhibitor, single point] | 

Compound | Potency | activity change, negative = growth inhibition
CC(Oc1ccc(Br)cc1)C(=O)N(Cc1nc(-c2ccccc2)no1)C(C)C (centres undefined) | inconclusive [inhibitor, single point] | 
COC(=O)/C=C\C(=O)N[C@@H]1CC[C@@]2(O)[C@H]3Cc4ccc(O)c5c4[C@@]2(CCN3CC2CC2)[C@@H]1O5 | inconclusive [inhibitor, single point] | 
C[C@]12CC[C@H]3[C@@H](CC[C@]4(O)C[C@@H](O)CC[C@]34C=O)[C@@]1(O)CC[C@@H]2C1=CC(=O)OC1 | active: 7.31 µM | 
Nc1c(C(=O)NCc2ccco2)c2nc3ccccc3nc2n1CCN1CCOCC1 | inconclusive [inhibitor, partial curve] | 
CCc1ccc(NC(=O)c2ccc(F)c(S(=O)(=O)N3CCc4ccccc4C3)c2)cc1 | inconclusive [inhibitor, single point] | 
COC(=O)C1=C(C)N(Cc2ccco2)C(=O)/C1=C\c1ccc(N(C)C)cc1 | inconclusive [inhibitor, single point] | 
COc1ccc(F)cc1CN1CCN(C(=O)CCC(=O)Nc2nnc(CC(C)C)s2)CC1 | inconclusive [inhibitor, partial curve] | 
Cc1cc(OC(=O)c2ccco2)c2c3c(c(=O)oc2c1)CCCC3 | active: 11.6 µM | 
Cc1ccccc1-n1c(/C=C/c2ccc(O)cc2)nc2ccccc2c1=O | active: 9.2 µM | 
CN1C(=O)C(=Cc2ccccc2OCc2ccccc2Cl)C(=O)N(C)C1=O | inconclusive [inhibitor, single point] | 
NP(=O)(OCCCCc1ccccc1)Oc1ccccc1Cl (centres undefined) | inactive | 
Cc1noc(C(=O)Nc2sc3c(c2C#N)CCC3)c1Cl | inconclusive [inhibitor, single point] | 
CC(C)[C@H]1C(=O)N2CCC[C@H]2[C@]2(O)O[C@](NC(=O)[C@@H]3C[C@@H]4c5cccc6[nH]cc(c56)C[C@H]4N(C)C3)(C(C)C)C(=O)N12 | inconclusive [inhibitor, single point] | 
CCOC(=O)c1ccccc1C(=O)OCC | inactive | 
CC(C)(C)c1ccc(OCC(=O)Nc2ccc(Cl)cc2C(=O)c2ccccc2)cc1 | inconclusive [inhibitor, single point] | 
CCOC(=O)C1(CCc2ccccc2)CCN(Cc2csc(C(C)=O)c2)CC1 | inconclusive [inhibitor, single point] | 
O=C(Nc1cccc(Cl)c1)c1cnc2sc(N3CCCC3)nn2c1=O | inconclusive [inhibitor, single point] | 
CCOC(=O)C1=C(N)Oc2c(c(=O)oc3ccccc23)C12C(=O)N(C)c1ccccc12 (centres undefined) |  | inconclusive: -35.9% [inhibitor]
C[C@]12CC[C@H](O)CC1=C([N+](=O)[O-])CC1C2CC[C@@]2(C)C1CC[C@@H]2O (some centres undefined) |  | inconclusive: -30.5% [inhibitor]
CCOc1ccccc1CN(CCc1ccc2c(c1)OCO2)Cc1ccc(CC)cc1 | inconclusive [inhibitor, partial curve] | 
CN(C)c1cc[n+](CC(O)C[n+]2ccc(N(C)C)cc2)cc1 | inactive | 
CCCOc1ccccc1NP(=O)(Oc1ccccc1)Oc1ccccc1 | inconclusive [inhibitor, single point] | 

Compound | Potency | activity change, negative = growth inhibition
Cc1ccc(C)c(-n2c(C)nc3ccccc3c2=O)c1 | inconclusive [inhibitor, single point] | 
CC(C)CNC(=O)c1c(N)n(Cc2ccc3c(c2)OCO3)c2nc3ccccc3nc12 | inconclusive [inhibitor, single point] | 
CSc1ncc(C(=O)Nc2ccc(Cl)cc2C(=O)c2ccccc2)c(C)n1 | inconclusive [inhibitor, partial curve] | 
O=C(O)Cn1cc(C=C2C(=O)NC(=O)NC2=O)c2ccccc21 | inactive | 
Cc1nn(CCC#N)c2c1P(=S)(N1CCCC1)OC(c1ccc(F)cc1)=N2 (centres undefined) | active: 29.1 µM | 
COc1ccc(S(=O)(=O)N2c3ccc(F)cc3CCC2C)cc1 (centres undefined) | active: 0.92 µM | 
Cc1ccc(-n2c(O)c(/C=N/c3ncc(Br)cc3Br)c(=O)[nH]c2=O)cc1 | inconclusive [inhibitor, single point] | 
COc1nc(NC2CCCCC2)nc(NC(C)(C)C)n1 | inconclusive [inhibitor, single point] | 
COc1cc2c(c(OC)c1O)-c1ccc(OC)c(=O)cc1C(NC(=O)C(F)(F)F)CC2 (centres undefined) | active: 0.103 µM | 
COC(=O)C1=C(c2cc3ccccc3s2)C[C@@H]2CC[C@H]1N2C(=O)NC1CC1 | inconclusive [inhibitor, single point] | 
COc1ccc(-n2nnnc2C(c2ccnc3ccccc23)N2CCC3(CC2)C(=O)NCN3c2ccccc2)cc1 (centres undefined) | inconclusive [inhibitor, single point] | 
CCn1ccnc1CN1CCCC(C(=O)c2ccc(OC)cc2OC)C1 (centres undefined) | inconclusive [inhibitor, single point] | 
Cc1nn(Cc2ccccc2)c(C)c1C(=O)OCC(=O)NCc1ccco1 | inactive | 
COc1cccc(C(=O)Nc2ccc(-c3cc(C(F)(F)F)nn3-c3ccccc3)cc2)c1 | inconclusive [inhibitor, single point] | 
COc1ccc(C(c2nnnn2Cc2ccccc2)N2CCC3(CC2)C(=O)NCN3c2ccccc2)cc1 (centres undefined) | inconclusive [inhibitor, single point] | 
CC[C@H]1CN2CCC1C[C@@H]2[C@@H](O)c1ccnc2ccc(OC)cc12 (some centres undefined) | inconclusive [inhibitor, single point] | 
O=C(NC1CCCCC1)Oc1cc2oc(=O)sc2cc1Cl | inactive | 
Cc1ccc(Cn2c(NCCCn3ccnc3)nc3c2c(=O)n(C)c(=O)n3C)cc1 | inconclusive [inhibitor, partial curve, poor fit] | 
O=C1NC2C(=CC(O)C(O)C2O)c2cc3c(cc21)OCO3 (centres undefined) | active: 0.411 µM | 
Cn1c(=O)c2c(-c3ccccc3)n3c(c2n(C)c1=O)C(c1ccco1)Nc1ccccc1-3 (centres undefined) | inconclusive [inhibitor, single point] | 
